# Experimental data as given in PubChem BioAssay (NCATS).
# The list shows a part of the results. Further columns of the screen follow, without active or inactive calls. Most of these compounds were active or inconclusive in the main read-out, so they are no random draw. Words in brackets tell the shape of the fitted curve; partial curves, single points and poor fits give uncertain potencies.
# Assay: qHTS Assay for Lipid Storage Modulators (AID 1519)
# Settings: Drosophila S3 cells, BODIPY lipid droplet/cell ratio, laser cytometry, cells loaded with oleic acid
# Procedure, shortened: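 Cells seeded at 5,000 per well were treated with compounds over a concentration series and loaded with oleic acid (400 uM, as added). Lipid droplet fluorescence (488 nm excitation, 500-530 nm channel) was read by laser-scanning cytometry and normalized to 20 uM Triacsin C.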
# [1] = measured here: cell count channel max response
# [2] = measured here: lipid (BODIPY) channel AC50
# [3] = measured here: lipid channel max response
# [4] = measured here: cell number channel AC50
# Tags describe the fitted curve by direction and shape.
Structure (SMILES),max response [1],AC50 [2],max response [3],AC50 [4]
COCCNc1ncnc2ccc(-c3c(C)noc3C)cc12,5.17%,"3.55 µM [rising, single point]",-0.571%,–
O=C(c1ccncc1)N1CCC2(CCCN(c3ncccn3)C2)CC1,16.8%,"0.158 µM [rising, full curve, poor fit]",29.4%,–
Cn1cc(-c2nc3cnc(N4CCNCC4)nc3n(Cc3ccc(F)cc3)c2=O)c2ccccc21,-104%,–,-112%,"39.8 µM [falling, single point]"
COC(=O)c1c(C)cc(O)cc1O,26.6%,"17.8 µM [rising, partial curve, poor fit]",36.6%,–
COc1ccc(-c2nc3cnc(Nc4cccc(OC)c4)nc3n(Cc3cccs3)c2=O)cc1,34.8%,–,-11%,"5.01 µM [rising, partial curve]"
N[C@H]1CONC1=O,44.4%,–,42.9%,"39.8 µM [rising, single point]"
N[C@@H](C(=O)O)c1ccc(O)c(C(=O)O)c1,3.9%,"14.1 µM [rising, single point]",7.87%,–
O=C(Oc1ccccc1)N1CCC[C@@]2(CCN(c3ccccn3)C2)C1,24.5%,"2.82 µM [rising, full curve]",33.1%,–
CC(=C(CCOP(=O)(O)O)SC(=O)c1ccccc1)N(C=O)Cc1cnc(C)nc1N,29.9%,"31.6 µM [rising, single point]",52.7%,–
CN(C)c1ncc2nc(-c3ccc(Cl)cc3)c(=O)n(C3CC3)c2n1,10.3%,"0.0158 µM [rising, full curve]",17.4%,–
c1cncc(CNc2nc(-c3cccnc3)nc3ccccc23)c1,15.9%,"0.794 µM [rising, full curve, poor fit]",21.7%,–
